Source: PubChem BioAssay AID1745845 (National Center for Advancing Translational Sciences (NCATS), 2022)
“And” between values parts separate entries of the source, which are not always exact repeats. Equal entries are not always repeated. Screen size: about 360,000 compounds; about 2,600 (0.72%) were called active. Inconclusive results, whose numbers are uncertain, are shown with a selection of clear calls. The call rests on the fitted dose curve; in most records, active means well fitted inhibition curve with a large enough effect; inconclusive means small, poorly fitted or top-dose-only effect; inactive means no such curve, though single readings can be large or run the other way. Potencies beside an inconclusive call are fits to weak or partial responses and may not hold up.

Assay: Primary qHTS for Inhibitors of ATXN expression; further: nearly all actives have a fitted effect of over 55% in size
Details: HEK-293 ATXN2-luciferase reporter, luminescence, 24 h; activity change, negative = inhibition: at 57 µM (top of the series)
From the text: University of Utah School of Medicine, Salt Lake City, Utah
Spinocerebellar ataxia type 2 (SCA2) is a multisystem neurodegenerative disease caused by a dominantly acting mutation leading to expansion of a polyQ domain in the ataxin-2 protein (ATXN2). SCA2 patients develop progressive ataxia and later lose function in other neuronal systems. Prominent parkinsonian signs develop in some patients. Like many neurodegenerative disorders, no symptomatic or disease-modifying treatments are known.
The primary objective of the proposed research is to identify compounds inhibiting ATXN2 expression and to test them for efficacy in SCA2 mouse models. We have developed a cell-based assay paired with an in vivo mouse model using identical luciferase expression constructs. This approach takes advantage of an ATXN2-luciferase transgene, with the luciferase gene flanked by the upstream and downstream portions of the ATXN2 gene. Here we describe a 5-7 dose quantitative high thoroughput screen (qHTS) for compounds lowering ATXN2 expression. We screened the NIH Molecular Libraries Small Molecule Repository (MLSMR) and NCGC's mechanistically annotated (MIPE) and drug repurposing (NPC) collections of compounds for lowering expression of an ATXN2-luciferase reporter in HEK-293 cells. The assay is a multiplexed cell viability assay to ensure target reduction in the absence of cytotoxicity. Secondary qHTS assays included a CMV-luciferase reporter expressed in HEK-293 cells as well as a biochemical assay using recombinant luciferase to detect inhibitors of the reporter enzyme. Compounds that inhibit ATXN2 expression but is not cytotoxic were selected for confirmatory and secondary screens.
PROTOCOL TABLE (as described by Inglese J, Shamu CE and Guy RK. 2007)
SEQUENCE No. (e.g., 1, 2, 3, etc.); […] (e.g., Cells, Incubation, Reagent, etc.); VALUE; DESCRIPTION.
1; Cells; 4 uL; white, solid bottom, 1536-well Greiner assay plate.
2; Incubation; 2 hr; 37 degree C in 5% humidified CO2.
3; Compounds; 23 nL; Kalypsis pintool (Wako USA) equipped with a 1536-well pin head.
4; Incubation; 24 hr; 37 degree C in 5% humidified CO2.
5; Reagent; 1 uL; Gly-Phe-7-Amino-4-trifluoromethylcoumarin.
6; Incubation; 30 min; 37 degree C in 5% humidified CO2.
7; Detection; Fluorescence; ViewLux plate reader (PerkinElmer).
8; Reagent; 3 uL; SteadyGlo luciferase solution (Promega).
9; Incubation; 5 min; room temperature.
10; Detection; Luminescence; ViewLux plate reader (PerkinElmer).
NOTES (numbers refer to Sequence numbers above)
1. S2 cells expressing ATXN2-luciferase reporter were suspended in phenol-red free DMEM and dispensed in assay plates using a Multidrop Combi dispenser (Thermo Fisher Scientific).
2. Assay plates were incubated. Evaporation was prevented by covering assay plates with metal lids containing holes to allow gas diffusion.
3. Compounds were added in a dose response manner with the final concentrations of 57, 11.4, 2.28, 0.46, 0.091, 0.018, 0.0037 uM. Vehicle-only plates, with DMSO being pin-transferred to columns 5-48, were inserted uniformly at the beginning and the end of each library to monitor and record any shifts in assay performance.
5. 125 uM Gly-Phe-7-Amino-4-trifluoromethylcoumarin (MP Biomedicals) working concentration was used at a final concentration of 25 uM.
7. To assess cell viability; the assay plates were read using the ViewLux high-throughput CCD imager (PerkinElmer), wherein single end-point fluorescence measurement was acquired (excitation 405/10; emission 540/25 nm).
8. Detection reagent SteadyGlo Luciferase (Promega) was added to the assay plate.
10. Luminescence is then measured on the ViewLux imager equipped with a clear emission filter using a 2 sec exposure. All screening operations were performed on a fully integrated robotic system (Kalypsys) containing one RX-130 and two RX-90 anthropomorphic robotic arms (Staubli).
[…]
On the % scale 0 is the no-effect control and ±100 the full control effect; potency means the concentration at half of the fitted maximal effect; tags describe the fitted curve by direction and shape.

| SMILES | Potency | activity change, negative = inhibition |
| --- | --- | --- |
| COc1ccc(C(=O)CCC(=O)N2CCN(c3cccc(Cl)c3)CC2)cc1 | inconclusive: 39.8 µM [inhibitor, single point] | – |
| O=C(CNC(=O)c1ccc2c(c1)OCO2)N/N=C(Br)/C=C/c1ccccc1 | inconclusive: 15 µM [inhibitor, partial curve, poor fit] | – |
| CC(=O)c1cccc(-c2cnc3c(NC=O)cc(-c4ccccc4F)cn23)c1 | inconclusive: 39.8 µM [inhibitor, single point] | – |
| Cc1ccc(S(=O)(=O)N(C)C)cc1NC(=O)c1cncc(Br)c1 | inconclusive: 29.9 µM [inhibitor, partial curve] | – |
| CN(c1nc(-c2ccc(Br)cc2)cs1)C1CCS(=O)(=O)C1 (configuration not stated) | – | inactive: 41.1% [at 11.3 µM] |
| CC1CN(c2sc(S(C)(=O)=O)nc2S(=O)(=O)c2ccc(Cl)cc2)CC(C)O1 (configuration not stated) | inactive | – |
| C=C1C(=O)OC2C=C(CO)C3OC3C3OC3(C)CC(OC(=O)/C(=C/C)COC(C)=O)C12 (configuration not stated) | inconclusive: 15 µM [inhibitor, partial curve, poor fit] | – |
| COc1ccc(CNC(=O)c2ccc3c(c2)N=C(C)c2c(C)ccc(C)c2S3)cc1 | inactive | – |
| CCCn1c(-c2ccc[nH]c2=O)nc2cc(C)c(C)cc21 | inactive | – |
| CC(C)c1ccc(-c2c(C#N)c(N)nc(SCC(=O)N3CCCCC3)c2C#N)cc1 | inconclusive: 11.2 µM [inhibitor, partial curve, poor fit] | – |
| CCOc1ccc(N2C(=O)c3[nH]nc(-c4ccccc4)c3C2c2ccc(O)c(OC)c2)cc1 (configuration not stated) | inconclusive: 28.2 µM [inhibitor, single point] | – |
| COc1ccc2cc(C#N)c(N3CCN(C(=O)c4ccccc4C)CC3)nc2c1 | inconclusive: 20 µM [inhibitor, partial curve, poor fit] | – |
| COc1cc(O)c(CCC(=O)c2ccc(OC)c(OC)c2)c(OC)c1 | inconclusive: 6.7 µM [inhibitor, single point] | – |
| COc1ccc(SN=C2C(C)=CC(=O)C=C2C)cc1 | inconclusive: 39.8 µM [inhibitor, partial curve, poor fit] | – |
| Cc1ccc(C(=O)Nc2cccc(C(=O)O)c2)cc1S(=O)(=O)N1CCCCC1 | active: 12.6 µM | – |
| O=C(Nc1cccc(NC(=O)c2cccs2)c1)c1ccc([N+](=O)[O-])o1 | inconclusive: 28.2 µM [inhibitor, partial curve] | – |
| COc1ccccc1NC(=O)c1nc(S(=O)(=O)Cc2ccccc2)ncc1Cl | inconclusive: 39.8 µM [inhibitor, single point] | – |
| CC(C)(C)S(=O)N1Cc2cc(=O)n(Cc3ccccc3)c(CCO)c2[C@H]1CCO (some centres not stated) | inconclusive: 0.501 µM [inhibitor, full curve, poor fit] | – |
| CC1CCN(CC(=O)N2CCCc3c2c(=O)oc2ccc(OCc4ccccc4)cc32)CC1 | inconclusive: 22.4 µM [inhibitor, single point] and inconclusive: 22.4 µM [inhibitor, partial curve, poor fit] | – |
| CCCOc1ccc(Br)cc1CSC(=N)N | inconclusive: 0.501 µM [inhibitor, full curve] | – |
| C/C(=N\NC(=O)c1ccc(N2CCCC2=O)cc1)c1ccc(O)cc1O | inconclusive: 4.47 µM [inhibitor, partial curve] | – |
| C=CCNc1oc(-c2ccc(Cl)cc2)nc1C#N | inconclusive: 35.5 µM [inhibitor, single point] | – |
| C[C@@H]1CN([C@@H](C)CO)S(=O)(=O)c2ccc(C#Cc3cccc(F)c3)cc2O[C@@H]1CN(C)CC1CC1 | inconclusive: 31.6 µM [inhibitor, single point] | – |

| SMILES | Potency | activity change, negative = inhibition |
| --- | --- | --- |
| Cc1ccc(NC2=NCC(Cc3ccc(Br)cc3)S2)cc1 (configuration not stated) | inconclusive: 39.8 µM [inhibitor, single point] | – |
| Cc1ccc(Sc2ccc(N3CCCC(C(=O)Nc4ccc(Cl)cc4)C3)nn2)cc1 (configuration not stated) | inactive | – |
| C/C(CC(=O)Nc1ccc(OCc2ccccc2)cc1)=N\NC(=O)C(=O)Nc1ccc(C)c(Cl)c1 | inconclusive: 39.8 µM [inhibitor, single point] | – |
| CN(C)c1cc[n+](CC(=O)N2CCCc3ccccc32)cc1 | – | inconclusive: -41.4% [inhibitor] |
| COc1c(Cl)cc(Br)c(OC)c1C(=O)NC(=O)Nc1nc(C)cc(C)n1 | inactive | – |
| COc1ccc(C[C@@H]2OC3(C=CC(=O)C=C3)O[C@H]2Cc2ccc(OC)cc2)cc1 | inconclusive: 3.98 µM [inhibitor, full curve, poor fit] | – |
| COc1cc([N+](=O)[O-])ccc1NC(=O)NCC1CCN(Cc2ccc(Cl)cc2)CC1 | inactive | – |
| COc1cc2nc(N(CCCN(C)C)C(=O)c3ccc(C(=O)c4ccccc4)cc3)sc2cc1OC | inconclusive: 39.8 µM [inhibitor, single point] | – |
| CCCN(CCC)C1=CC(=[N+]2CCCC2)CC(C)(C)C1 | inconclusive: 7.08 µM [inhibitor, full curve] | – |
| CSc1ncc(Cl)c(C(=O)NCc2ccc(C)cc2)n1 | inactive | – |
| COc1ccc(Cl)cc1C(=O)NNC(=O)c1csc(N2CCOCC2)n1 | inactive | – |
| CCc1ccc(C(=O)Nc2nc3ccccc3[nH]2)cc1 | active: 5.01 µM | – |
| NCCNCCNCCN | inactive | – |
| COc1ccc(-c2csc(C(O)c3ccc(F)c(OC)c3)n2)cn1 (configuration not stated) | inconclusive: 31.6 µM [inhibitor, partial curve, poor fit] | – |
| CCCCCn1c(N)c(-c2nc3ccccc3s2)c2c([N+](=O)[O-])nn(C)c(=O)c21 | inconclusive: 39.8 µM [inhibitor, single point] | – |
| CCN(CC)CC(O)COc1ccccc1C(=O)CCc1ccccc1 (configuration not stated) | inactive | – |
| O=C(CSc1nnc(-c2ccccc2)c(-c2ccccc2)n1)N1CCc2ccccc21 | inactive | – |
| Cc1cc(C)c2nc3nc(C)cc(C)c3c(N)c2c1 | active: 25.1 µM | – |
| COc1ccc(-c2cc(-c3nc4ccccn4c3NCc3ccccc3)ccc2OC)cc1 | active: 3.98 µM | – |
| CCOn1c(=O)c(-c2cc3ccccc3o2)[n+]([O-])c2ccccc21 | inconclusive: 6.31 µM [inhibitor, single point] | – |
| N=c1n(CCN2CCCCC2)c2ccccc2n1CC(O)c1ccc(Cl)c(Cl)c1 (configuration not stated) | active: 25.1 µM | – |
| NC(=O)c1cnccc1C=Cc1ccccc1 | inactive | – |
| Cc1ccc(C(=O)NCCSc2c(C)[nH]c3ccccc23)cc1C | inconclusive: 17.8 µM [inhibitor, partial curve] | – |

| SMILES | Potency | activity change, negative = inhibition |
| --- | --- | --- |
| O=C(Nc1cccc(-c2nnc(-c3ccco3)o2)c1)C(c1ccccc1)c1ccccc1 | inactive | – |
| CC(C)c1ccc2c(c1)CC[C@H]1[C@](C)(CN)CCC[C@]21C | inconclusive: 31.6 µM [inhibitor, single point] | – |
| Cc1ccc(NC(=O)C2=CC(c3cccs3)=NS(=O)(=O)N2C)cc1 | inactive | – |
| O=[N+]([O-])c1cc(Cl)cc(/C=N/Nc2nc3ccccc3s2)c1O | inconclusive: 28.2 µM [inhibitor, single point] | – |
| CC(C)C[C@@H](CN1CCC[C@H]1CN1C(=O)C(=O)NC[C@@H]1Cc1ccccc1)N1C[C@H](Cc2ccc(O)cc2)N(CC2CCCCC2)C(=O)C1=O | inactive | – |
| Cc1ccc(-n2cc(CCCCCCCCC(=O)O)nn2)cc1 | inactive | – |
| CCn1cc2nc(SCC(=O)Nc3ccc(OC)cc3OC)n(Cc3ccc(OC)cc3)c(=O)c2n1 | inactive | – |
| CC(C)[Si]1(C(C)C)OCC2OC(n3cnc4c(N)ncnc43)C(N)C2O[Si](C(C)C)(C(C)C)O1 (configuration not stated) | inconclusive: 39.8 µM [inhibitor, single point] | – |
| O=C(Cn1nnc(-c2ccccc2)n1)N/N=C/c1cc([N+](=O)[O-])ccc1O | inconclusive: 28.2 µM [inhibitor, partial curve, poor fit] | – |
| O=C(Nc1nc2ccccc2s1)c1cc2c(s1)-c1ccccc1OC2 | inconclusive: 22.4 µM [inhibitor, single point] | – |
| COc1ccc(NC(=O)CN(C)C(=O)c2cn(-c3ccccc3)nc2-c2ccc(Cl)cc2)cc1 | inconclusive: 39.8 µM [inhibitor, single point] | – |
| O=C(Nc1cccc(F)c1)Nc1ccnn1C1CCN(C(=O)c2ccccn2)CC1 | inactive | – |
| COc1ccc(CC(=O)OCC(=O)Nc2ccc3c(c2)OCCO3)cc1OC | inactive | – |
| COc1ccccc1OCC(O)Cn1c(=N)n(Cc2ccccc2)c2ccccc21 (configuration not stated) | inconclusive: 15.8 µM [inhibitor, partial curve] | – |
| Cc1ccc(S(=O)(=O)N2CCC(C(=O)Nc3cc(C)ccc3C)CC2)cc1 | inactive | – |
| CCCN(CCC)CCCNC(=O)c1cc2c(-c3ccc(Cl)cc3)nn(C)c2s1 | inconclusive: 31.6 µM [inhibitor, single point] | – |
| COC(=O)c1ccc(C(=O)OC)c(-n2c(=O)c3ccccc3c3ccccc3c2=O)c1 | inconclusive: 39.8 µM [inhibitor, single point] | – |
| Cc1cc(F)ccc1NC(=O)CCS(=O)(=O)c1cccc2nsnc12 | inactive | – |
| S=C(Nc1ccc(Cl)cc1)NC1CCN(Cc2ccccc2)CC1 | inconclusive: 8.91 µM [inhibitor, partial curve, poor fit] | – |
| COc1cccc(C#Cc2ccc3c(c2)O[C@@H](CN(C)C(=O)c2ccccn2)[C@@H](C)CN([C@H](C)CO)S3(=O)=O)c1 | inconclusive: 35.5 µM [inhibitor, single point] | – |
| O=C(Nc1ccccc1)/C(=C/c1ccc([N+](=O)[O-])cc1)NC(=O)c1ccco1 | inconclusive: 2.24 µM [inhibitor, single point] | – |
